Out of some 46,000 compounds screened, about 60 (0.1%) were called active. Another 3% or so got no clear call; they are omitted. The call rests on the fitted dose curve; in most records, active means well fitted inhibition curve with a large enough effect; inconclusive means small, poorly fitted or top-dose-only effect; inactive means no such curve, though single readings can be large or run the other way. Some of the results follow.
test: Primary qHTS assay for Inhibitors of ovarian cancer metastasis using an organotypic tumor microenvironment (TME) model.; further: nearly all actives have a fitted effect of over 65% in size;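 on activity change, negative = inhibition: plate controls were DMSO wells for no effect and tomatine positive control wells for full effect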; details: SKOV3ip1-GFP adhesion/invasion on 3D omental model, fluorescence; series mostly up to 45.8 µM; activity change, negative = inhibition: at the top concentration
Outline: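 Primary human omental fibroblast/mesothelial 3D culture pre-formed 48 h. SKOV3ip1-GFP cells added with compounds (0.36-46 umol/L), incubated 2 h RT/16 h 37 C, fixed; GFP cells quantified at 488/509 nm.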

Activity change, negative = inhibition, inactive:
Clc1ccc2c(c1)NC(c1ccncc1)=NC(c1cccs1)=N2 3.24%
CCN1CCN(C(=O)c2cnn(-c3cccc(Cl)c3)c2C2CCN(C(=O)OC(C)(C)C)CC2)CC1 7.92%
O=C(COCc1cc(-c2ccc3c(c2)OCO3)on1)N1CCN(c2cccc(Cl)c2)CC1 -3.96%
Cc1ccc(S(=O)(=O)N(Cc2nc(-c3cccc(C)c3)no2)C2CCCCC2)cc1 -5.02%
CNS(=O)(=O)c1cn(CC(=O)N2CCN(c3cccc(C)c3C)CC2)cc1S(=O)(=O)NC 18.5%
Cc1cc(F)ccc1NC(=O)CCS(=O)(=O)c1ccc2c(c1)CC(C)N2C(=O)C1CC1 (stereo unspecified) 0.686%
NC(=O)C1CCN(C(=O)c2cccc(NC(=O)c3nsc4ccccc34)c2)CC1 3.9%
Cc1noc(-c2ccc(-c3noc(-c4cccc(F)c4)n3)cc2)n1 5.72%
O=C(C1COc2ccccc2O1)N1CCN(c2nc3ccc(F)cc3s2)CC1 (stereo unspecified) -1.51%
CSC1=NC2(CCN(C(=O)NC3CCCCC3)CC2)N=C1c1ccc(C)cc1 5.72%
O=C(C1COc2ccccc2O1)N(Cc1cccnc1)c1nc2ccc(Cl)cc2s1 (stereo unspecified) 12.5%
Cc1ccc(C#N)c(=O)n1CC(=O)Nc1ccccc1C(F)(F)F -7.42%
CCc1c(CN2CCN(c3cccc(C)c3C)CC2)csc1C 6.32%
Fc1ccc(CNc2ncnc3onc(-c4ccc(F)cc4)c23)cc1 42.4%
CCc1cccc(C)c1Nc1c(-c2ccccc2)nc2sccn12 -2.59%
CCOc1ccc(CNC(=O)CSc2cc(=O)n(CC)c3ccccc23)cc1 -34.8%
Nc1c(C(=O)Nc2ccc(OC(F)(F)F)cc2)nnn1Cc1ccccc1 -3.64%
Cn1c(=O)c2c(nc(SCC(=O)Nc3ccccc3)n2Cc2ccccc2F)n(C)c1=O 6.85%
CCCNC(=O)C1CCC(Cn2c(=O)c3sccc3n(Cc3ccccc3F)c2=O)CC1 (stereo unspecified) 11.4%
Cc1cccc(C)c1NC(=O)NCCc1c[nH]c2ccccc12 -0.943%
Cc1ccc2c(c1)-c1onc(C(=O)N3CCN(c4ccc(Cl)cc4)CC3)c1CO2 4.51%
O=C(NC1CCCCC1)c1ccc(Cn2c(SCc3ccc(F)cc3)nc3cccnc32)cc1 -3.01%
CCCCN(CC)C(=O)CSc1nc2n[nH]c(C)c2c(=N)n1-c1cccc(OC)c1 -1.25%
COc1cccc(N2CCN(c3ncnc4c3nc3n4CCCCC3)CC2)c1 9.89%
O=S(=O)(c1ccccc1)c1nnn2c1nc(NCc1ccc(F)cc1)c1sccc12 -13.2%
Brc1ccc(-c2nc3ccccn3c2Nc2ccc3c(c2)OCCO3)o1 -35.8%
COc1ccccc1CNC(=O)CCn1nc(C)c2c(C)n(-c3ccccc3)nc2c1=O 0.555%
COc1ccc(OCC(=O)NC2CC(=O)N(c3cccc(OC)c3)C2)cc1 (stereo unspecified) 11.6%
Cc1cccc(N(C)C(=O)CCS(=O)(=O)c2ccc3c(c2)oc(=O)n3C)c1 -0.449%
C=Cc1ccc(Cn2c(C(=O)O)c(CNC3CCCC3)c3ccc(C)cc32)cc1 0.323%
CCOC(=O)c1c(S(=O)(=O)N2CCC(C(=O)NCc3ccc(F)cc3)CC2)c(C)n(C)c1C -8.39%
COc1ccc(NC(=O)CN2CCN(Cc3ccc(F)cc3)S2(=O)=O)cc1Cl 5.3%
COc1ccc(NC(=O)c2cc(S(=O)(=O)N3CCCCCC3)cn2C)c(OC)c1 -5.97%
CC(C)(C(=O)NCC(F)(F)C(F)(F)F)C(=O)N[C@@H]1C(=O)Nc2ccccc2-c2ccccc21 -26.2%
CCOC(=O)c1c(C)[nH]c(C)c1S(=O)(=O)N1CCC(C(=O)N2CCN(c3ccccc3)CC2)CC1 21.9%
COc1ccc(OC)c(CNC(=O)c2c3c(nc4ccccc24)C(=O)N(C2CCCCC2)C3)c1 2.51%
O=C(NCc1ccccc1Cl)C1CCCN(S(=O)(=O)c2cccc3nsnc23)C1 (stereo unspecified) 9.49%
CCOC(=O)c1c(C)[nH]c(C)c1S(=O)(=O)N1CCC(C(=O)N2CCN(c3cccc(Cl)c3)CC2)CC1 -5.16%
Cc1ccccc1-c1noc(-c2cccnc2NCc2ccco2)n1 1.16%
COc1ccc(-c2cn3nc(N4CCCC(C(=O)Nc5cccc(Cl)c5C)C4)sc3n2)cc1 (stereo unspecified) -9.78%
CN(C)CCNC(=O)c1ccc2c(c1)N(Cc1ccccc1)C(=O)c1ccccc1S2(=O)=O -6.49%
CCOCCn1ccc2c(OCC(=O)NCc3ccc(C)cc3)cccc2c1=O 5.1%
O=C(CN1C(=O)COc2ccc(S(=O)(=O)N3CCCC3)cc21)N1CCN(c2ccc(Cl)cc2)CC1 -21.7%
COc1cccc(-n2cc(C(=O)OCc3ccc(F)c(F)c3)c3ccccc3c2=O)c1 4.41%
COCCCNC(=O)N1[C@H](c2cccs2)[C@@H](C)C(=O)[C@@H](C)[C@@H]1c1cccs1 -11.8%
COc1ccc(C(=O)Nc2nnc(S(=O)(=O)N3CCCc4ccccc43)s2)cc1 -2.79%
CCOc1ccccc1-n1nnc(-c2nc(-c3ccccc3C)no2)c1C 10.9%
Cc1ccc2nc(-c3cccc(NC(=O)c4ccc(Br)o4)c3)oc2c1 -0.437%
O=C(O)c1cccc(Nc2ncnc3ccc(Br)cc23)c1 0.119%
Cc1nn(C)c2c1c(C(F)(F)F)cc(=O)n2CC(=O)N1CCCCC1 13.7%
CCOC(=O)c1c(NC(=O)c2ccc(Br)cc2)sc2c1CCCC2 0.446%
CCCCNc1nc2c(c(=O)n(C)c(=O)n2C)n1CC(O)COc1ccccc1C (stereo unspecified) 5.29%
O=C(Nc1ccc(F)c(Cl)c1)C1CCN(S(=O)(=O)c2ccc3[nH]c(=O)ccc3c2)CC1 -2.39%
Cc1ccccc1NC(=O)c1cccc2c(=O)c3c([nH]c12)CCCC3 0.287%
Cc1ccc2cc(CN(C)C(=O)c3cccc(Cl)c3)c(=O)[nH]c2c1 -4.68%
Cc1ccc(Cl)cc1NC(=O)N1CCC(CN2CCCCCC2)CC1 -1.48%
CCC1CN(C(=O)Nc2cc(C)ccc2OC)c2cc(Cl)ccc2O1 (stereo unspecified) -17.1%
CCCCC(=O)OCc1cc(=O)n2nc(C3CCCCC3)sc2n1 15%
CCOc1cc(N)c(Cl)cc1C(=O)NCC1CN(Cc2ccc(F)cc2)CCO1 (stereo unspecified) 13.9%
Cc1cc(C)cc(OCC(=O)NC(Cc2c[nH]c3ccccc23)C(=O)O)c1 (stereo unspecified) -8.19%
CCOc1ccc(S(=O)(=O)Nc2ccc3oc(C)c(C(=O)OC(C)C)c3c2)cc1 -2.77%
Cc1cccc(OCC(=O)Nc2c(C(=O)N3CCN(c4ccccc4F)CC3)oc3ccccc23)c1 28.3%
Cc1cc(C)n(-c2nc3ccccc3nc2Nc2ccc(Cl)c(Cl)c2)n1 -13.8%
COc1ccccc1NCc1cccn1-c1nnc(N2CCCCCC2)s1 -2.27%
O=C(Nc1ccccc1)N(Cc1cccs1)c1ccc(F)cc1 2.4%
COc1ccc(C2c3c(n(C)c4ccccc34)C(=O)N2CC(=O)Nc2cc(Cl)ccc2C)cc1 (stereo unspecified) 9.12%
Cc1ccc2onc(CC(=O)Nc3cccc(C(F)(F)F)c3)c2c1 -14%
CCCN(C(=O)c1cc2c(=O)oc3ccccc3c2s1)c1cccc(Cl)c1 17.7%
CCCc1cc(=O)n2[nH]c(NC(=O)c3ccccc3Cl)nc2n1 3.65%
CCOC(=O)c1ccc(N2C(=O)c3[nH]nc(-c4ccc(OC)cc4)c3C2c2ccccc2Cl)cc1 (stereo unspecified) 7.04%
Cc1ccc(NC(=O)N2CCc3cc(S(=O)(=O)N4CCC(C)CC4)ccc32)cc1F 0.342%
CCc1cccc(NS(=O)(=O)c2ccc3c(c2)n(C)c(=O)c(=O)n3C)c1 7.11%
COc1cccc(CNC(=O)c2cc(S(=O)(=O)N3CCCCCC3)cn2C)c1 -10.3%
CCOC(=O)c1sc(N2C(=O)c3oc4ccc(C)cc4c(=O)c3C2c2ccccc2F)nc1C (stereo unspecified) -2.02%
CCc1ccc(NC(=O)c2ccc(F)c(S(=O)(=O)NCc3ccc(Cl)c(Cl)c3)c2)cc1 3.43%

outcome, inactive:
O=c1cc(-c2ccccc2)nc(SCc2nc(-c3ccc(Cl)cc3)no2)[nH]1
COc1ccc(N2Cc3cccc(C(=O)Nc4cc(C)cc(C)c4)c3C2=O)cc1
CCN(CC)S(=O)(=O)c1nnc(NC(=O)COc2ccccc2F)s1
COCCCn1c(=N)c(C(=O)NCc2ccco2)cc2c(=O)n3ccccc3nc21
Cc1ccc(-n2c3nc(=O)[nH]c(=O)c-3cc3c(C)nn(-c4ccccc4)c32)cc1Cl
CN(C)S(=O)(=O)c1ccc2c(c1)N(CC(=O)Nc1ccc(OC(F)(F)F)cc1)C(=O)CS2
CCC(=O)N1CCc2cc(Br)cc(S(=O)(=O)N3CCN(c4ccc(C)cc4)C(C)C3)c21 (stereo unspecified)
CCCSc1ncc(Cl)c(C(=O)NCc2ccc(OC)cc2)n1
Cc1ccccc1NC(=O)CSc1nnc(COc2ccc(Cl)cc2)o1
COc1ccccc1CNC(=O)CCn1c(=O)c2ccccc2n(CC(=O)Nc2ccc(Br)cc2F)c1=O
Cc1ccc(O)c(NC(=O)c2noc3c2CCCC3)c1
Cc1ccc2c(c1)N(S(=O)(=O)c1cc(-c3onc(C)c3C)ccc1C)CCO2
O=C(Cn1cc(C(=O)c2ccncc2)c(=O)c2cc(F)ccc21)Nc1ccc(Cl)cc1
Cc1ccc(NC(=O)CSc2ccc3nnc(CCNS(=O)(=O)c4ccccc4)n3n2)cc1Cl
CCOC(=O)N1CCN(C(=O)CN(c2cccc(Cl)c2)S(=O)(=O)c2ccccc2)CC1
Cc1ccc(CNC(=O)CCCn2nc(C)c3c(C)n(-c4ccccc4)nc3c2=O)cc1
CCOC(=O)c1c(NC(=O)CSc2cn(CCNC(=O)c3ccc(OC)c(OC)c3)c3ccccc23)sc2c1CCCC2
CCOC(=O)CSc1nc2cc3c(cc2c(=O)n1CCCC(=O)NCCc1ccc(OC)c(OC)c1)OCO3
COc1ccc(-c2cc(-c3ccc4c(c3)NC(=O)CO4)nc3c2COc2ccc(F)cc2-3)cc1
CCOC(=O)c1ccc(-n2c(-c3ccc(C)cc3)c(C)n3c4c(=O)n(C)c(=O)n(C)c4nc23)cc1
CCc1nonc1NC(=O)c1oc2ccc(C)cc2c1C

Source: PubChem BioAssay AID1963576 (National Center for Advancing Translational Sciences (NCATS), 2024)
